{
  "source": "PubChem BioAssay AID504332",
  "about": "(National Center for Advancing Translational Sciences (NCATS), 2011)",
  "note": "About 31,000 (8.9%) of roughly 350,000 compounds were called active. The inconclusive results got no clear call from the source; some entries with a clear call stand among them for comparison. The call rests on the fitted dose curve; in most records, active means well fitted inhibition curve with a large enough effect; inconclusive means small, poorly fitted or top-dose-only effect; inactive means no such curve, though single readings can be large or run the other way. A potency beside an inconclusive call is a rough fit, not a confirmed value. On the % scale 0 is the no-effect control and ±100 the full control effect; potency means the concentration at half of the fitted maximal effect; tags describe the fitted curve by direction and shape.",
  "data": [
    {"target": "Histone-lysine N-methyltransferase EHMT2 (Homo sapiens) (UniProt Q96KQ7)", "sequence (Q96KQ7 whole entry, looked up)": "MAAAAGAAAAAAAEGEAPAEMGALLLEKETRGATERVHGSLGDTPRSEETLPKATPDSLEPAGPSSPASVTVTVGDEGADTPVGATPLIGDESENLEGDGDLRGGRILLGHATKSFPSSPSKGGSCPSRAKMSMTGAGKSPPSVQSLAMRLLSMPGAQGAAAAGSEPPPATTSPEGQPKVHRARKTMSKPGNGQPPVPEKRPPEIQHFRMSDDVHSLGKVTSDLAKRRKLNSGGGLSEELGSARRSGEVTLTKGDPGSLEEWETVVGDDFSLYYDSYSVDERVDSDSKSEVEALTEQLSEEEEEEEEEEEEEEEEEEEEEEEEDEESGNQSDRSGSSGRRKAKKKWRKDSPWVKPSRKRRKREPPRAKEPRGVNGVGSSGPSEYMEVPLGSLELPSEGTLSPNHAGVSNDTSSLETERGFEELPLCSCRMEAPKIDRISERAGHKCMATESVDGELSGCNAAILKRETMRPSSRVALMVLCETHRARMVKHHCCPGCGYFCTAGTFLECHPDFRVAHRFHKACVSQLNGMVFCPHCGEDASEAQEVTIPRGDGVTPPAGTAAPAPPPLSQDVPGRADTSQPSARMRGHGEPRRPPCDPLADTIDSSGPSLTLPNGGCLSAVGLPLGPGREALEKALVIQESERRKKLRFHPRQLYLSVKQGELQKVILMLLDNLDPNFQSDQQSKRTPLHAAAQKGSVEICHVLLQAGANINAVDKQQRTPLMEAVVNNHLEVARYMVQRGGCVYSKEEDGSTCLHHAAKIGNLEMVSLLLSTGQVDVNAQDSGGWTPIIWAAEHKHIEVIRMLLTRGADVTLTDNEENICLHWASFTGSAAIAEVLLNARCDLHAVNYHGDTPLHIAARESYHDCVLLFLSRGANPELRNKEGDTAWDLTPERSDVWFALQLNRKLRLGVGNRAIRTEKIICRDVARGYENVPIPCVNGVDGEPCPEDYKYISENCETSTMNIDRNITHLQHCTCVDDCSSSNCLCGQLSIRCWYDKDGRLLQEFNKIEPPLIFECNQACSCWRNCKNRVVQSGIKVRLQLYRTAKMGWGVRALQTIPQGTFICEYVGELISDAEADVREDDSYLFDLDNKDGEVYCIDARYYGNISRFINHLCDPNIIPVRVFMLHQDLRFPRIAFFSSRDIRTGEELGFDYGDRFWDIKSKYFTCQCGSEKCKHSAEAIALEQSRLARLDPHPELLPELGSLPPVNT", "assay": "qHTS Assay for Inhibitors of Histone Lysine Methyltransferase G9a; further: nearly all actives have a fitted effect of over 75% in size", "details": "G9a H3K9 monomethylation, AlphaScreen, 2 h; activity, negative = inhibition: at 59 µM (top of the series) unless noted", "outline": "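Step 1: enzyme (final 20 nM) with compound, 15 min RT. Step 2: substrate peptide 500 nM and SAM 20 uM, 2 h RT. Step 3: anti-H3K9me1 antibody and AlphaScreen beads, 10 min, then plate read.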", "values": [
      {"smiles": "COC(=O)CSC1=C(C#N)C(c2ccccc2)CC(=O)N1", "note": "(stereo not given)", "activity, negative = inhibition": "inactive: -9.02% [at 12.7 µM]"},
      {"smiles": "Cc1cccc(OCCCCCn2ccnc2)c1", "Potency": "active: 31.6 µM"},
      {"smiles": "COc1ccc(CN(C)CC2CCCN(CCc3ccc(F)cc3)C2)cc1OC", "note": "(stereo not given)", "activity, negative = inhibition": "inactive: -7.31% [at 102 µM]"},
      {"smiles": "CC(C)N(C)CCOC(=O)c1ccccc1Br", "activity, negative = inhibition": "inactive: -2.38%"},
      {"smiles": "Cc1ccc(-n2c(CCc3ccccc3)nnc2SCC(=O)NCc2ccccc2)cc1C", "activity, negative = inhibition": "inactive: -0.696% [at 102 µM]"},
      {"smiles": "O=C1c2c(O)cc(O)cc2O[C@H](c2ccc(O)c(O)c2)[C@H]1O", "Potency": "active: 10 µM"},
      {"smiles": "C=CCC1Cc2c(cccc2[N+](=O)[O-])C(CC=C)N1", "note": "(stereo not given)", "Potency": "active: 50.1 µM"},
      {"smiles": "CCn1cc(C(=O)O)c(=O)c2cc(F)c(N3CCN(C(=O)Nc4ccccc4)CC3)cc21", "Potency": "active: 39.8 µM"},
      {"smiles": "Cc1c(N)cccc1-n1cccc1", "Potency": "inconclusive: 25.1 µM [inhibitor, partial curve, poor fit]"},
      {"smiles": "CCn1cc(C(=S)N2CCC(C(N)=O)CC2)c2ccccc21", "Potency": "inconclusive: 89.1 µM [inhibitor, partial curve, poor fit]"},
      {"smiles": "Cc1ccc2cc3c(NS(=O)(=O)c4cccc5nonc45)nn(CC(C)C)c3nc2c1", "Potency": "inconclusive: 79.4 µM [inhibitor, single point]"},
      {"smiles": "CN1c2ccccc2Sc2cc(N)ccc21", "Potency": "active: 1.12 µM"},
      {"smiles": "CN(CC(=O)N1CCOCC1)C(=O)CSc1nc2ccccc2s1", "Potency": "inconclusive: 22.4 µM [inhibitor, partial curve, poor fit]"},
      {"smiles": "COc1ccc(CNC(=O)c2ccc(Cn3cc(Cl)cn3)o2)cc1", "activity, negative = inhibition": "inactive: 13.5% [at 102 µM]"},
      {"smiles": "CCCCCCSc1nnc2c(n1)OC(C)Nc1ccc(Br)cc1-2", "note": "(stereo not given)", "Potency": "inconclusive: 1.12 µM [inhibitor, full curve]"},
      {"smiles": "COc1cc(C(=O)ONC(=O)c2ccc(OC(F)F)cc2)cc(OC)c1OC", "Potency": "inconclusive: 89.1 µM [inhibitor, single point]"},
      {"smiles": "Cc1ccccc1SC1CCN(Cc2nc(C3CC3)no2)CC1", "activity, negative = inhibition": "inactive: 123% [at 102 µM]"},
      {"smiles": "CCc1n[nH]c(=S)n1/N=C/c1cc(Br)c(O)c(OC)c1", "Potency": "active: 7.94 µM"},
      {"smiles": "Cc1nc2ccc(S(=O)(=O)N(C)CC(=O)NCc3ccc(N(C)C)cc3)cc2s1", "Potency": "active: 50.1 µM"},
      {"smiles": "O=C(Nc1nc2ccccc2[nH]1)c1ccc(Cl)c(S(=O)(=O)N2CCCC2)c1", "activity, negative = inhibition": "inactive: 8.66% [at 102 µM]"},
      {"smiles": "Cc1c(C(=O)Nc2cccc(-c3nc4ccccc4s3)c2)oc2ccccc12", "activity, negative = inhibition": "inactive: -23.3%"},
      {"smiles": "CCOc1ccc2nc(N3CCCC(C(=O)Nc4cc(Cl)c(OC)cc4OC)C3)sc2c1", "note": "(stereo not given)", "activity, negative = inhibition": "inactive: -39.6%"},
      {"smiles": "O=C(CSC(=S)N1CCCC1)c1cc(Br)cc(Br)c1O", "Potency": "active: 20 µM"},
      {"smiles": "COc1ccc(NC(=O)c2ccc(C(=O)c3ccccc3)o2)cc1", "activity, negative = inhibition": "inactive: 3.36% [at 2.33 µM]"},
      {"smiles": "CC1(C)C2CC=C(/C=N/NC(=S)NCCc3ccccc3)C1C2", "note": "(stereo not given)", "Potency": "inconclusive: 70.8 µM [inhibitor, single point]"},
      {"smiles": "C/C(=N\\NC(=O)CNC(=O)c1cccnc1)c1cccc(O)c1", "activity, negative = inhibition": "inactive: -6.56% [at 102 µM]"},
      {"smiles": "CCOCCn1c(SCc2ccc(F)cc2)nc2c1c(=O)[nH]c(=O)n2C", "Potency": "inconclusive: 4.47 µM [inhibitor, partial curve, poor fit]"},
      {"smiles": "Cc1ccc2nc(NC(=O)CSCc3ccccc3)sc2c1", "Potency": "inconclusive: 28.2 µM [inhibitor, partial curve, poor fit]"},
      {"smiles": "Cn1c(SCC(=O)NC(=O)NCc2ccco2)nnc1-c1ccccc1", "Potency": "inconclusive: 70.8 µM [inhibitor, partial curve, poor fit]"},
      {"smiles": "Cc1cc(C)cc(OCC(O)CN2CCN(Cc3ccc4c(c3)OCO4)CC2)c1", "note": "(stereo not given)", "Potency": "inconclusive: 70.8 µM [inhibitor, single point]"},
      {"smiles": "COc1ccc(CN2CCC(=O)N([C@H](CO)c3ccccc3)CC2)cc1OC", "activity, negative = inhibition": "inactive: 12.5% [at 102 µM]"},
      {"smiles": "O=S(=O)(c1ccc(Cl)cc1)N1CCC(N2CCOCC2)CC1", "Potency": "inconclusive: 1.58 µM [inhibitor, single point]"},
      {"smiles": "O=C(NNC(=O)c1cccnc1SCc1cccc([N+](=O)[O-])c1)c1ccc(F)cc1", "Potency": "inconclusive: 89.1 µM [inhibitor, single point]"},
      {"smiles": "CCOC(=O)N1CCC(NC(=O)C2CCN(C(=O)c3cc4oc(C)cc4n3Cc3c(F)cccc3Cl)CC2)CC1", "Potency": "active: 35.5 µM"},
      {"smiles": "O=C(COC(=O)c1ccc2ccccc2c1)Nc1ncc(C(F)(F)F)cc1Cl", "activity, negative = inhibition": "inactive: 12.7% [at 12.7 µM]"},
      {"smiles": "CCOC(=O)c1ccc(NC(=O)c2c(Cl)cc(C)nc2C)cc1", "Potency": "active: 50.1 µM"},
      {"smiles": "CCN(CC(=O)Nc1ccc(NC(C)=O)cc1)C(=O)CSCC(=O)Nc1ccc(C)cc1", "Potency": "inconclusive: 50.1 µM [inhibitor, partial curve]"},
      {"smiles": "Cc1ccc2c(c1)NCCO2", "Potency": "inconclusive: 31.6 µM [inhibitor, single point]"},
      {"smiles": "CC(=O)Nc1sc(N/N=C\\c2ccccc2F)nc1-c1cccs1", "Potency": "active: 10 µM"},
      {"smiles": "CCCCCCCCCCCCCCCC(=O)NCCc1c[nH]c2ccccc12", "activity, negative = inhibition": "inactive: 30.4% [at 12.7 µM]"},
      {"smiles": "CCOC(=O)c1c(CN(CC)CC)oc2cc(Br)c(O)cc12", "Potency": "inconclusive: 79.4 µM [inhibitor, single point]"},
      {"smiles": "CCC1CCCCN1C(=O)COc1c(Br)cc(Br)c2cccnc12", "note": "(stereo not given)", "activity, negative = inhibition": "inactive: 1.65% [at 102 µM]"},
      {"smiles": "Cc1[nH]n(-c2ccccc2)c(=O)c1C(=O)c1ccccc1", "Potency": "inconclusive: 25.1 µM [inhibitor, single point]"},
      {"smiles": "COCC(=O)Nc1ccccc1C(=O)NC(C)C", "activity, negative = inhibition": "inactive: 8.99%"},
      {"smiles": "CC(C)(C)NCC(=O)c1c[nH]c2ccccc12", "Potency": "inconclusive: 89.1 µM [inhibitor, single point]"},
      {"smiles": "CCNc1ccc(C(=O)OCC(=O)NCCN2C(=O)CSC2=O)cc1[N+](=O)[O-]", "Potency": "inconclusive: 89.1 µM [inhibitor, single point]"},
      {"smiles": "NC(=O)NC(=O)CSc1nc(C2CCCCC2)n(-c2ccccc2)n1", "activity, negative = inhibition": "inactive: -6.64%"},
      {"smiles": "CCCCC(CC)COC(=O)CCCCC(=O)OCC(CC)CCCC", "note": "(stereo not given)", "activity, negative = inhibition": "inactive: 0.151% [at 0.501 µM]"},
      {"smiles": "Cc1csc(Nc2ccccc2)[n+]1C", "Potency": "inconclusive: 17.8 µM [inhibitor, partial curve, poor fit]"},
      {"smiles": "Cc1ccc(C(=O)OCC(=O)NCCc2ccccc2)cc1S(=O)(=O)N1CCOCC1", "Potency": "inconclusive: 79.4 µM [inhibitor, single point]"}
    ]}
  ]
}
